PubChem BioAssay AID488969 (Vanderbilt High Throughput Screening Facility, 2010)
Over roughly 110,000 compounds, “z-score” has its median near -0.1; the highest 2% begin near 2. Some of the results follow. Activity calls are given as the source filed them.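 Rule for the calls: active = z-score in the third read window above 3 or below -3; inactive = the rest.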

Target: Metabotropic glutamate receptor 8 (Rattus norvegicus) (UniProt P70579)
Assay: mGluR8 Gi/Go-coupled signaling modulation – cell-based, rat, thallium flux, HTS, primary screen (AID 488969)
Conditions: HEK293 rat mGluR8, GIRK (G protein-gated inwardly rectifying potassium channel) thallium flux, FluoZin2; at 10 µM; stronger effect = higher value; submaximal glutamate (EC20) added with thallium

Chain of UniProt P70579 (P70579 whole entry, looked up): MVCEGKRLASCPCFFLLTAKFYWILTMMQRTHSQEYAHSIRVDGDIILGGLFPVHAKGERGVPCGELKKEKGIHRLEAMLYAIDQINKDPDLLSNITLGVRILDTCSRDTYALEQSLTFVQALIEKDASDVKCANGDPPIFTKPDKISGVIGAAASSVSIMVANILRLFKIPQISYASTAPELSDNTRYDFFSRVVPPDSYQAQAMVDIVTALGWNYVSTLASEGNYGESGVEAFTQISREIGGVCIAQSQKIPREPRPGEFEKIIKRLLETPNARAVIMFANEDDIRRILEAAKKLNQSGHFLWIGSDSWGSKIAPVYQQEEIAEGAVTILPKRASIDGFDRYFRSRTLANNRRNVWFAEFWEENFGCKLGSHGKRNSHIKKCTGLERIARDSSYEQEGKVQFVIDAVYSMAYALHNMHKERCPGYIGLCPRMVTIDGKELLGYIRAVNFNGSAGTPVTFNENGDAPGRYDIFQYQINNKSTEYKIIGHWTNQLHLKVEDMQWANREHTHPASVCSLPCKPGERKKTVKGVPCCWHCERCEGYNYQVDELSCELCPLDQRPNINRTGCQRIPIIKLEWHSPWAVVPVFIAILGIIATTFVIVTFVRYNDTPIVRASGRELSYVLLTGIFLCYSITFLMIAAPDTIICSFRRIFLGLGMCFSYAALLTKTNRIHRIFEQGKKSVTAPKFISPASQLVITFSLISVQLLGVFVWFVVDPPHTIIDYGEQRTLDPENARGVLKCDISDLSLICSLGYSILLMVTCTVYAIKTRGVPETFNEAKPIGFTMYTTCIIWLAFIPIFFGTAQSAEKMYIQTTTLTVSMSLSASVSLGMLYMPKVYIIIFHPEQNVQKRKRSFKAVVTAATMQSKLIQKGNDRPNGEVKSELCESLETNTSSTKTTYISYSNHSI

SMILES | z-score
CCn1c(N)nc2ccccc21 | 0.0417
Cc1noc(NS(=O)(=O)c2ccc(N/C=C\C(=O)c3ccc4c(c3)OCO4)cc2)c1C | 0.0931
COc1ccccc1NC(=O)c1ccc(NC(=O)CSc2n[nH]c(N)n2)cc1 | -0.238
Cc1ccc(C)c(-c2cc(C(=O)NNC(=S)NCC(C)C)c3ccccc3n2)c1 | -0.49
CC(=O)N1CC=C2C(C#N)=C(N)C(C#N)(C#N)[C@H](c3ccoc3)[C@H]2C1 | -0.136
CCOC(=O)c1sc(Nc2nc3cc4c(cc3s2)OCO4)cc1C | -0.155
CC(=O)c1ccc(N2CCN(C(=O)c3ccco3)CC2)c(F)c1 | -0.0315
COc1ccc(C(=O)NNC2=CC(=O)CC(C)(C)C2)cc1 | -0.335
CC(C)Cn1c(N)c(C(=O)CSc2nnnn2C)c(=O)n(C)c1=O | -0.302
Cc1c(Cl)cccc1Nc1nc(N)nc(CN2CCCCCC2)n1 | -0.363
Cc1ccc(-c2csc(NC(=O)CSc3nc(C)cc(=O)[nH]3)n2)cc1 | active: -3.08
CN1CCN(/C(=N\S(=O)(=O)c2ccc(F)cc2)c2ccccc2)CC1 | -0.0184
O=C(CSc1nc2ccccc2c(=O)n1CCCO)NCc1ccccc1 | 0.236
COc1ccc(S(=O)(=O)N2CCCCC2)cc1NC(=O)c1ccc2c(c1)OCO2 | -0.261
C=C(C)Cn1c(N2CCCC2)nc2c1c(=O)[nH]c(=O)n2C | -0.221
O=C(Cn1cc([N+](=O)[O-])cn1)Nc1ccn(Cc2c(F)c(F)cc(F)c2F)n1 | -0.06

SMILES | z-score
Cc1ccc(C2CC(=O)NC(SCC(=O)OCc3ccccc3)=C2C#N)o1 (stereo unspecified) | -0.199
O=C(CC1CCCCC1)NCC1CCCO1 (stereo unspecified) | -0.35
O=C(Nc1ccccc1)c1sc(Cl)nc1-c1ccccc1 | -0.405
COc1ccc(NC(=O)CCS(=O)(=O)c2ccccc2)c(OC)c1 | 0.256
C=CCN1C(=O)/C(=C\c2ccco2)C(C(=O)OC)=C1C | -0.348
CCSc1nnc(CCNC(=O)OC(C)(C)C)o1 | -0.345
CSc1nn(-c2ccc(C(=O)OCC(=O)NC(=O)NC(C)C)cc2)c(=S)s1 | -0.201
O=C(O)CCN(CCC(=O)O)S(=O)(=O)c1ccccc1 | -0.0389
O=C(/C=C/c1ccc(OCCCF)cc1)NCc1ccc(Cl)cc1 | -0.204
CC(NS(=O)(=O)c1ccc(Cl)cc1)C(c1cccs1)N1CCN(C)CC1 (stereo unspecified) | 0.838
COc1cccc(NC(=O)COC(=O)c2ccco2)c1 | -0.199
Clc1cnc(N/N=C/c2cccs2)c(Cl)c1 | 0.311
O=C(/C=C\c1cn(-c2ccccc2)nc1-c1cccs1)N1CCOCC1 | 0.512
Cc1ccc(-n2c(SCC(=O)NCCN3C(=O)CSC3=O)nnc2-c2ccccc2)cc1C | -0.27
CCOc1ccc(-n2ccnc2SCC(=O)N2CCCc3ccccc32)cc1 | 0.0483
